Where “and” joins values, the source holds several entries; their conditions need not be identical. Equal values may be shown once. Among all 94,000 compounds or so, about 4,000 (4.3%) were called active. Inconclusive results, whose numbers are uncertain, are shown with a selection of clear calls. Calls come from the whole dose curve; as a rule, active = well fitted inhibition curve with a large enough effect; inconclusive = small, poorly fitted or top-dose-only effect; inactive = no such curve, though single readings can be large or run the other way. Potencies of inconclusive entries are doubtful fits and often do not repeat.
Assay: Cytotoxic Profiling in NIH 3T3 Cell Line of Diverse Libraries Using Quantitative High-Throughput Screening; note: nearly all actives have a fitted effect of over 55% in size
Details: NIH 3T3 viability, CellTiter-Glo ATP luminescence, 48-72 h; activity change, negative = cytotoxicity: at 96.7 µM (top of the series) unless noted; series mostly up to 96.7 µM
Method in brief: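 Viability of NIH 3T3 cells after 48 or 72 hr compound treatment at 37 °C was assessed by CellTiter-Glo, with luminescence imaged following a 10 min room-temperature step.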
% is set by controls: 0 for no effect and ±100 for the full control effect; potency is the fitted concentration of half-maximal effect; tags give direction and shape of the fitted curve.

| SMILES | Potency | activity change, negative = cytotoxicity |
| --- | --- | --- |
| COCCOC(=O)C1=C(C)N=C2SC=C(CC(=O)N3CCCC3)N2C1c1cccc(F)c1 (stereo not given) | inactive |  |
| O=C(Cc1c[nH]c2ncc(-c3cccnc3)cc12)NC1CCOCC1 | inconclusive: 100 µM [inhibitor, partial curve, poor fit] |  |
| O=C(Nc1cccc(C(F)(F)F)c1)N[C@H]1CO[C@H]2[C@@H]1OC[C@@H]2n1cc(-c2ccccc2)nn1 | inconclusive: 56.2 µM [inhibitor, partial curve, poor fit] |  |
| COc1ccc(C(=O)Nc2cccc(-c3nnc4n3CCCC4)c2)cc1 | inactive |  |
| O=C(NC[C@H]1COCc2nc3cc(F)ccc3n21)c1ccccc1 | inactive |  |
| O=C1CC(Cc2ccccc2)CN1CC(=O)N1CCOC2(CCCC2)C1 (stereo not given) | inactive |  |
| COc1ccc(OC)c(CN2CCNc3cc(Nc4ccccc4)ncc3C2)c1 | active: 35.5 µM |  |
| COCCCn1c(=O)c(C(=O)N2CCC(C#N)CC2)nc2cccnc21 | inactive |  |
| Cc1noc(-c2cn(C3CCN(C(=O)c4ccc(Cl)s4)CC3)nn2)n1 | inactive |  |
| CC1(c2ccccc2)CCCN(Cc2nnc(-c3cccnc3)o2)C1 (stereo not given) | inconclusive: 50.1 µM [inhibitor, partial curve, poor fit] |  |
| CN(Cc1cc(-c2cccnc2)no1)C(=O)C1COc2ccccc2C1 (stereo not given) | inconclusive: 44.7 µM [inhibitor, partial curve, poor fit] |  |
| O=C(c1ccccc1F)N1CCC2(CC1)CN(Cc1ccccc1)CC2CO (stereo not given) | inconclusive: 70.8 µM [inhibitor, single point] |  |
| CC(C)(C)NC(=O)N1CCC2(CC1)C(=O)N(CC(=O)NCCc1ccccc1)CN2c1ccccc1 | inconclusive: 50.1 µM [inhibitor, partial curve, poor fit] |  |
| COc1ccc(-c2n[nH]c3c2CC(=O)N(CCOc2ccccc2)C3)cn1 | inconclusive: 44.7 µM [inhibitor, partial curve, poor fit] |  |
| Cc1ccc(-c2nccn3cc(C(=O)N4CCN(C5CCCCC5)CC4)nc23)cc1 | inactive |  |
| COc1ccc(Cn2c(C3CCN(C(=O)C(C)c4ccccc4)CC3)n[nH]c2=O)cc1 (stereo not given) | inactive |  |
| O=C(Cc1ccc(F)cc1)N1CCOc2ccc(CN3CCc4ccccc4C3)cc2C1 | inconclusive: 44.7 µM [inhibitor, partial curve, poor fit] |  |
| CN1CCC(N[C@@H]2CO[C@H](CNC(=O)CC(C)(C)C)[C@H]2O)CC1 | inconclusive: 31.6 µM [inhibitor, partial curve, poor fit] |  |
| Cc1nc(-c2c3n(c(=O)n(CC(=O)Nc4ccc(C)c(C)c4)c2=O)CCCC3)no1 | inconclusive: 70.8 µM [inhibitor, partial curve, poor fit] |  |
| C(=C\c1ccccc1)/CN1CCN(c2ncncn2)CC1 | inconclusive: 25.1 µM [inhibitor, full curve] |  |
| CC[C@@H]1[C@@H](NC(=O)C2(c3ccc(S(C)(=O)=O)cc3)CCC2)[C@@H]2CCO[C@H]12 | inactive |  |
| CCC1(C(=O)O)CCCN(Cc2ccccc2)C1 (stereo not given) | inactive |  |

| SMILES | Potency | activity change, negative = cytotoxicity |
| --- | --- | --- |
| COc1ccc(-c2noc([C@@H]3CCCN3C(=O)Cc3ccccc3Cl)n2)cc1OC | inconclusive: 50.1 µM [inhibitor, partial curve, poor fit] |  |
| Cc1ccccc1-c1cnc2n[nH]c(-c3ccc4c(c3)OCO4)c2n1 | active: 25.1 µM |  |
| COc1cccc(CN2CCc3c(cc(C(=O)Nc4ccc(F)cc4C)n3C)C2)c1 | inconclusive: 39.8 µM [inhibitor, partial curve, poor fit] |  |
| CCC(=O)Nc1ccc(-c2c(-c3ccc(F)cc3)nn(-c3ccc(F)cc3)c2OC(C)=O)cc1 | inconclusive: 56.2 µM [inhibitor, partial curve, poor fit] |  |
| COc1ccccc1-c1ncc2c(n1)OCCN(c1cccc(C(F)(F)F)c1)C2=O | inconclusive: 10 µM [inhibitor, full curve, poor fit] |  |
| Cc1cc(C(=O)N2CCCC(O)(CN3CCCC3)C2)ccc1Cl (stereo not given) | inactive |  |
| Cn1ncc2c(C(=O)NCc3ccccc3)cc(-c3cccnc3)nc21 | inconclusive: 44.7 µM [inhibitor, partial curve, poor fit] |  |
| CC(=O)NCCC(=O)N1Cc2ccccc2CC2(CCCCN2CC2CCNC2)C1 (stereo not given) | inactive |  |
| COc1ccc(CC(=O)Nc2ccc3n(c2=O)C[C@H]2C[C@@H]3CN(C(=O)c3ccc(-c4ccccc4)cc3)C2)cc1 | inactive |  |
| CCOc1ccccc1NC(=O)N1CCC(Oc2ccccc2-c2nc(C)no2)C1 (stereo not given) | inactive |  |
| COCC1CN(S(=O)(=O)Cc2ccccc2)CC12CCNCC2 (stereo not given) |  | inconclusive: -31.1% [inhibitor] |
| O=C(c1cccc(Cl)c1)N1CCC(c2nn(-c3ccc(F)cc3)c(=O)[nH]2)CC1 | inactive and inconclusive: 44.7 µM [inhibitor, partial curve, poor fit] |  |
| O=C(NCc1cccc(C(F)(F)F)c1)c1nc2sccn2c1-c1ccc(F)cc1 | inconclusive: 112 µM [inhibitor, partial curve] |  |
| O=C1NCCCCCCN(C(=O)c2ccoc2)[C@H]2C[C@H](c3nc(Cc4ccccc4)no3)C[C@@H]12 | inconclusive: 35.5 µM [inhibitor, partial curve, poor fit] |  |
| CCOC(=O)CN(C1CCCC1)[C@@H]1C[C@@H]2CO[C@H](C(C)C)C[C@@H]2C1 | inconclusive: 25.1 µM [inhibitor, partial curve, poor fit] |  |
| COc1nc2nc(CCc3ccccc3)n(C)c2cc1-c1ccnc(C)c1 | inconclusive: 11.2 µM [inhibitor, partial curve, poor fit] |  |
| CCc1ccccc1NC(=O)Cn1c(-c2cccc(Cl)c2)nc(C)c(CCO)c1=O | inconclusive: 50.1 µM [inhibitor, partial curve, poor fit] |  |
| CCOCC(=O)N1CCCn2cc(-c3ccccc3)nc21 | inactive |  |
| CCOc1cc(C(=O)N2CCN(c3cc(-c4ccc(Cl)cc4)[nH]n3)CC2)cc(OCC)c1OCC | active: 31.6 µM |  |
| Cc1noc2c(NCCN3CCOCC3)cc(-c3ccc(Cl)cc3)nc12 | inconclusive: 10 µM [inhibitor, full curve, poor fit] |  |
| COc1cccc(S(=O)(=O)N2CCC3(CC2)CC(N(C)Cc2ccccc2)CCO3)c1 (stereo not given) | inconclusive: 44.7 µM [inhibitor, partial curve, poor fit] |  |
| CC(C)Oc1ccc(CN2C(=O)C3(CCOCC3)CC2c2nnnn2C(C)(C)C)cc1 (stereo not given) | inactive |  |

| SMILES | Potency | activity change, negative = cytotoxicity |
| --- | --- | --- |
| COCc1ccc(CN2CCCC(C(=O)Nc3cccc(-n4cccn4)c3)C2)o1 (stereo not given) | inactive |  |
| O=C1Nc2ccccc2CN(Cc2ccc(Cl)cc2)C12CCNCC2 | active: 14.1 µM |  |
| Cc1ccc(F)cc1CN1CCOc2cc([S+](N)(=O)[O-])ccc2C1 | inconclusive: 79.4 µM [inhibitor, partial curve, poor fit] |  |
| C=CCOc1c(OC)ccc2c1CN(CC1CC1)C(=O)CCN2CC(O)COCc1ccco1 (stereo not given) | inconclusive: 70.8 µM [inhibitor, single point] |  |
| CCN1C[C@H]2COc3cc(OC)ccc3[C@H]2N(C(=O)C2CCC2)CCC1=O | inconclusive: 50.1 µM [inhibitor, partial curve, poor fit] |  |
| COc1ccc(CCCN2C(=O)O[C@@H]3CN(c4nc(C)cc(C)n4)C[C@@H]32)cc1 | inconclusive: 44.7 µM [inhibitor, partial curve] |  |
| Cc1cc(CN2CCn3c(nn(-c4ccc(C(F)(F)F)cc4)c3=O)C2)no1 | inconclusive: 39.8 µM [inhibitor, full curve, poor fit] |  |
| O=C(CCCc1ccccc1)N1CCCC(CN2CCCC2)CC1 (stereo not given) | inconclusive: 50.1 µM [inhibitor, partial curve, poor fit] |  |
| COCCn1c(CN(C)C(C)c2ccccn2)cnc1S(=O)(=O)CCC(C)C (stereo not given) | inconclusive: 79.4 µM [inhibitor, single point] |  |
| CN(Cc1cccc(C(=O)Nc2cccc(C#N)c2)c1)CC1COCCO1 (stereo not given) | inactive |  |
| CC1=C[C@@H](CNC(=O)c2ccccn2)[C@H](C(C)C)C[C@H]1CC(=O)N1CCCC1 | active: 100 µM |  |
| Cc1ncsc1C(=O)N1CCNc2cnc(Nc3cccc(C(F)(F)F)c3)nc2C1 | inconclusive: 50.1 µM [inhibitor, partial curve, poor fit] |  |
| COCCOC1CCOC2(CCN(C(=O)c3sccc3C)CC2)C1 (stereo not given) | inactive |  |
| O=C(CCc1cc2n(n1)CCN(C(=O)c1ccc[nH]1)C2)N1CCOCC1 | inactive |  |
| Cc1cc(C(=O)N2CCC(Oc3ccccc3-c3nc(C4CC4)no3)C2)n[nH]1 (stereo not given) | inconclusive: 50.1 µM [inhibitor, partial curve, poor fit] |  |
| COc1ccccc1-c1cc(C(=O)NCCc2ccc(F)cc2)nn2cccc12 | inconclusive: 20 µM [inhibitor, full curve, poor fit] |  |
| COc1ccc(-c2cc(-c3ccc(OC)nc3)cn3cncc23)cc1 | active: 39.8 µM |  |
| COc1cccc(N2C(=O)NC(=NC3CCCC3)C23CCCN(Cc2ccc(F)cc2)C3)c1 (stereo not given) | inconclusive: 50.1 µM [inhibitor, partial curve, poor fit] |  |
| COCCn1nc2n(c1=O)CCN(C(=O)CCc1c(C)noc1C)CC2 | inactive |  |
| COc1ccc(CCNC(=O)c2nc3cccnc3n(C3CCCCC3)c2=O)cc1 | inconclusive: 50.1 µM [inhibitor, partial curve, poor fit] |  |
| COc1ccc(C(=O)N2CCc3onc(-c4ccc(C(F)(F)F)cc4)c3C2)o1 | inconclusive: 56.2 µM [inhibitor, partial curve, poor fit] |  |

From PubChem BioAssay AID1345082 (National Center for Advancing Translational Sciences (NCATS), 2018)
